From the supplement of paper PMC3334620
Over roughly 33,000 sequences, “E-score (-0.5 to 0.5)” has its median near -0.016; the highest 2% begin near 0.31. The list shows a part of the results.

Target: Cst6 (UniProt P40535)
Assay: PBM E-score (8-mer binding enrichment) (E-score (-0.5 to 0.5)); higher = stronger / more preferred TF binding; most listed sequences are background and not binding sites
Settings: protein concentration: 200 nM; construct: GST-DNA-binding domain
Summary of the method: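 GST-tagged yeast TFs (full-length or DNA-binding domain) were made by PURExpress in vitro transcription/translation and applied at about 100-200 nM to universal all-10-mer Agilent arrays. The arrays were made double-stranded by primer extension, on fresh or once-stripped slides. Bound protein was detected with fluorescent anti-GST, and scans were normalised with masliner. Each ungapped eight-base word, pooled with its reverse complement, received an E-score (modified Wilcoxon-Mann-Whitney statistic) from the Universal PBM Analysis Suite.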

Row | Sequence | PBM E-score
1 | CAAGAACG | 0.0684
2 | ATGTTTTC | 0.223
3 | ATCAAATA | 0.0992
4 | GATGTGCA | 0.00759
5 | ACAGCATA | 0.138
6 | AGTTTACC | -0.0624
7 | ACCGGCAA | -0.186
8 | GACGACAC | 0.181
9 | AACAGCCG | 0.0115
10 | CAGATGAA | 0.0452
11 | AATGTCAG | -0.00168
12 | CAAAGATC | 0.049
13 | ACTCTCTA | -0.144
14 | GCCGACGC | -0.0913
15 | CCTAGGCC | -0.216
16 | AGATTCAG | -0.163
17 | CAAAGGGG | -0.0611
18 | AGCCAGCG | -0.245
19 | CGGAGTGA | 0.137
20 | ACTCTCCT | -0.202
21 | ATACAAGG | 0.141
22 | ATGCATCA | 0.372
23 | AAACGCCC | -0.0366
24 | CACAACTC | 0.123
25 | CAAACAAG | 0.00823

Row | Sequence | PBM E-score
26 | GCATCTCA | 0.124
27 | GCAGCGCA | -0.161
28 | CTTTATCA | 0.00948
29 | ACTCTATG | 0.012
30 | ACGGTCAG | -0.051
31 | AGGAAACG | -0.0151
32 | CCCGTAAC | -0.163
33 | TGAGGCAA | 0.164
34 | ACATTGAG | -0.0338
35 | GACTTAGA | -0.0611
36 | TTACATAA | 0.433
37 | CACCCTTC | -0.285
38 | TCCGCGGA | -0.0627
39 | CAACAAAA | 0.168
40 | CTCCGGAG | -0.088
41 | ATGCTATC | -0.057
42 | CTAAGTGA | 0.184
43 | CAGTTACG | 0.17
44 | TCCAGAAA | 0.216
45 | CACTTGCA | 0.015
46 | CAAGGCGA | -0.128
47 | GGTGAGAA | 0.0817
48 | ACTCGATC | -0.0157
49 | ACTGTGAA | -0.0151
50 | ATACCCGA | -0.132

Row | Sequence | PBM E-score
51 | AGAGTAGG | 0.0169
52 | ACTCTTGC | -0.0303
53 | CGCTTCAC | -0.0447
54 | GGGGAACA | -0.346
55 | CGACCCAA | 0.0872
56 | GAATTGTC | 0.0596
57 | ATCTGAGG | 0.0216
58 | CTCCCGCC | -0.0921
59 | AGCAGAGG | -0.307
60 | ACGTTCTC | 0.0236
61 | CCTCGCAA | -0.0503
62 | GCGCGCCA | 0.179
63 | ACATCTAA | 0.0827
64 | AACCCTCG | -0.0978
65 | GTGGTTTA | -0.0399
66 | CAGAGCGA | -0.018
67 | TTATTCAA | 0.212
68 | AGGGGCGA | -0.3
69 | AGCAGTAA | 0.103
70 | AGTCAAAT | 0.0827
71 | ATGATAGG | 0.00019
72 | AGGGTCCA | -0.317
73 | GCATACGC | -0.123
74 | AGAATGCC | 0.0564
75 | TAGAAATA | 0.141

Row | Sequence | PBM E-score
76 | AGTGAACA | -0.0145
77 | TGGTCGAA | -0.142
78 | GATTTGTA | 0.161
79 | CGCTTTAG | -0.0171
80 | GTTGTTGA | 0.239
81 | GATCTATA | 0.0388
82 | ACCTGTCC | -0.238
83 | CTGGCCAC | -0.122
84 | CAAACCCG | -0.0771
85 | AGTTAGCC | -0.129
86 | GGAACTGA | -0.223
87 | ACGGATAG | 0.0654
88 | ACGGCCGA | 0.0667
89 | CAGCGTCG | -0.0474
90 | ATGTAAGG | 0.152
91 | CCAGAGCC | -0.0517
92 | CGCTTCTC | -0.0501
93 | GACTAATA | 0.131
94 | CCTATTAG | 0.127
95 | CCCCATAA | -0.161
96 | CAGCATCG | -0.218
97 | AGGGATTC | -0.2
98 | CGCTGGCA | -0.0792
99 | CCATATGC | 0.00439
100 | GCAGGACC | -0.307

Row | Sequence | PBM E-score
101 | CCACTATA | 0.0189
102 | GTTTCCGA | -0.0619
103 | GCCGGAGC | -0.249
104 | CCCATTCG | -0.0868
105 | GAAATGAC | 0.32
106 | AATTTTGC | 0.144
107 | AAGCCCTG | -0.102
108 | AATATGCG | 0.124
109 | CAACTTCC | 0.0402
110 | ACCTAGTG | -0.0571
111 | AGAGACTA | -0.135
112 | CACAGCTC | -0.0417
113 | AAGATTGG | 0.0246
114 | GGCACGAC | -0.071
115 | AAATTCTG | 0.165
116 | CGTCGTAA | 0.0583
117 | CACAGATC | -0.00896
118 | AATGGGTC | -0.223
119 | CCGATCCC | -0.415
120 | GCGCCATA | -0.0316
121 | AGTTTGCA | 0.044
122 | AAATGCAG | -0.141
123 | TCTTGCCA | -0.0736
124 | TCAGGGAA | -0.141
125 | CATGTTTA | 0.0329

Row | Sequence | PBM E-score
126 | CCCAGGCG | -0.0878
127 | CTCTTCTC | -0.137
128 | CATTCACA | 0.12
129 | ACTTGCTC | -0.198
130 | ACCATAAT | 0.148
131 | ACCGACGT | 0.036
132 | ATCTACTG | 0.0739
133 | GCACGTTA | 0.0802
134 | CATGTGGG | -0.204
135 | CACAGTGA | 0.156
136 | AACGGTTC | -0.125
137 | AAAGACAA | 0.274
138 | ACCTGTTC | -0.0262
139 | CCGGCAAA | -0.105
140 | ACACCATC | 0.0241
141 | AGCACAAT | 0.151
142 | GTAATAAA | 0.352
143 | GTCAGTTA | 0.106
144 | AAGAGCAT | 0.0708
145 | ACATGGTG | 0.165
146 | ACGGGACC | -0.259
147 | CTCGAGGA | -0.0361
148 | ATGGCAAG | -0.0133
149 | AGTATCAG | 0.0172
150 | AGCGCTTC | -0.0215

Row | Sequence | PBM E-score
151 | CCCGAACG | -0.136
152 | CAAAATGG | -0.0268
153 | TAACGGAA | 0.0185
154 | CACTTGGG | -0.126
155 | ACCCGGGT | -0.262
156 | CCCCCTTC | -0.415
157 | CAACATTC | -0.102
158 | TGCCACAA | 0.0508
159 | CGTTACGC | 0.162
160 | CTAAAAGC | -0.0998
161 | AAATGTTC | 0.0602
162 | CTTTGAGA | 0.22
163 | ATTCCGCA | 0.00802
164 | AACCCATG | 0.0101
165 | GACCCGCC | -0.106
166 | ATAAGTGA | 0.231
167 | AGCTGCCC | -0.113
168 | AGCGTAGA | -0.253
169 | AATCAGGA | -0.0589
170 | GCCAATAC | -0.118
171 | ATCACATG | 0.109
172 | ACAACGGA | 0.0907
173 | AAGCTCAC | -0.167
174 | AGATGGCT | -0.049
175 | CCCCTCGG | -0.176

Row | Sequence | PBM E-score
176 | ACCACGAC | -0.0633
177 | GCTTGCGA | 0.0401
178 | ATTCATTG | 0.0815
179 | CTGATCCC | -0.173
180 | CTACATAG | -0.0634
181 | GGACAGAA | 0.0124
182 | GATTCCGA | 0.0584
183 | AAACTAGT | 0.062
184 | ATGAGCGC | 0.0716
185 | AAAGATTA | 0.189
186 | CGCTCTTC | -0.226
187 | ATACGAGG | -0.202
188 | AGCCGCGA | -0.0946
189 | GGACGATA | -0.0175
190 | CGTCGCGC | 0.146
191 | ACTCGCCG | 0.0702
192 | CATCCCGC | 0.0488
193 | GTACACCA | -0.0797
194 | CAGACTCA | -0.0855
195 | CTAGATCA | -0.124
196 | ACCGTGAG | -0.167
197 | TTAAGGAA | 0.00952
198 | ACACGAAG | 0.163
199 | AGGAAAGG | -0.155
200 | CGTTCAAC | 0.15

Row | Sequence | PBM E-score
201 | CTTGCTGC | -0.0883
202 | GATGCAAC | 0.074
203 | AACTCGAA | 0.105
204 | AGCTCATC | -0.112
205 | GACGGGCA | 0.0343
206 | CGCAGTAC | -0.0889
207 | TCGCCTAA | -0.0175
208 | CCTAACAG | 0.00445
209 | ACGTTATG | 0.333
210 | CATGGCTA | -0.0115
211 | GCTTATTA | 0.175
212 | CTGATTCA | 0.0585
213 | CAGTTGGA | 0.0316
214 | GACTATCA | -0.104
215 | ATCAAAAC | 0.109
216 | CGTCGATA | 0.0681
217 | AAAGGCTC | -0.0106
218 | ACCTCTTA | 0.117
219 | TCTCACAA | 0.132
